Measurements published in the RNAGym collection of RNA variant scans (doi:10.7554/elife.90254).
Read counts are not given, so values of variants with three or more changes are uncertain.

B1: LINE1-mini (parent)
chain: GGCAGAGCUCAACACAGCGUGGCAAAGUGGCUGUGGCUAGACUGCC

Variants of: B1
Assay: self-cleavage, relative activity (ratio to wild type); higher = more cleavage; in vitro, sequencing; the parent is a self-cleaving ribozyme

Variant	self-cleavage
G7C G19U C37U	0.03
G2U A24C U28G	0.15
A16G C18U U28A C31G G33C	0.02
A11C A14C A16G G17C A41U	0.01
G2A U20C C31U	0.29
C13G G21U A26U G36C A41G C42U	0.02
G2U C13A C18A G33A	0.01
G21A G30A G36C	0.09
G5C G30A C31G G40A	0.11
C10U C13U G27C C46A	0.08
A6C U20A A25U	0.38
C3U C15A G40A	0.03
C10A A25C G33A G40A	0.03
A6U C15G G29C A39U G40C A41C	0.01
G1A A4C C10A A14C	0.03
G30U C37A U38C	0.06
G1A G27C A39C	0.12
C10U C31U U34G	0.05
G2U C10G C15A A24U A25C A26G U28A C46G	0.01
C8A A11C G17C C18A U20A G40C C42A C45U	0.01
A6G G30U C37A C45G	0.02

Variant	self-cleavage
G17A G21U G29U G35A C42A	0.05
C3G C23G G27A G36A G44A	1.17
A4U G5U U9A G21U	0.14
G29A U32G G40A	0.02
G5U C15G G17A	0.05
A14C A16U C46G	0.02
G2U A4U G22U A26G G30U	0.02
G1C G21U G27A	0.13
C8A U28A G36A G40U	0.18
G5A G35A C42G	0.09
C23A G29A G40U	0.08
A12G A16C G19C A24U G40A C42G	0.08
G21C U32C C37G	0.03
C10A A11U A14C	0
G22C G29U G35C U43A	0.05
G5U G30A A41G	0.07
C3A A4U A6C A11U G21A	0.03
G2A A14G C23U	0.71
C15G A24C G27C C31U	0.01
C18U U34C C42A	0.06
U9C G17A U20A U32A C46A	0

Variant	self-cleavage
A16G U28G C31A	0.02
G2C G19A U34G	0.03
G17A G29A C46A	0.94
C3A G5C C13U G21U	0.16
C15A C18A G30A U43A	0.07
G1U A11G G21C A39C	0.01
C3G C18G G35A U43C	0
C3A A25U C31U	0
C3U U20G G27A	0.28
C15A G36A C45U	0.05
A12U G21C G27A	0.18
G2C A4U C8G A39C C46U	0.04
G7A A16G C18G	0.28
C8G A11U C13G G27C	0.01
A4C A12C A39U	0.07
C23G A26G U32A G33A	0.03
G5C G36C U43C	0.03
A16G G22U U32G U34C	0.01
G2U G5C G17C	0
C3U C10U C18A U34C C42U C46A	0.04
U9G A12C A25U G30U	0.01

Variant	self-cleavage
U20G U32C G35A U43C	0.02
C3A C18A U28G	0.02
G21C G30A G40A	0.17
A14U U34G U38A	0.42
G22C U28A U32C G40U	0.01
G1A C13U C23A	0.38
A6U U38A C45G	0.19
G1A G33C C42A	0
U34A G36U G44C	0.04
A12U G22U C37G A41C	0
A11U G35U U38A	0.04
C15U G21U U34G U38G	0.03
G5U A6G C13A U20C U38C	0.04
G2A G19A G21U G30C A39G A41G C42G	0.13
G1A A14G A39U	0.08
A4G A11C A14U U20C	0.07
G2C C37U G40A G44C	0.08
U28C C31G U34G	0
C15A G22A G27U G29U	0.13
C10A C13U G29A C37G	0.01
A14U C23U A26C	1.4
